Results published in PubChem BioAssay AID1745845 (National Center for Advancing Translational Sciences (NCATS), 2022).
“And” between values parts separate entries of the source, which are not always exact repeats. Equal values may be shown once. Out of some 360,000 compounds screened, about 2,600 (0.72%) were called active. Inconclusive means that the source gave no clear call. Such entries were picked first, then a sample of the others. The call rests on the fitted dose curve; in most records, active means well fitted inhibition curve with a large enough effect; inconclusive means small, poorly fitted or top-dose-only effect; inactive means no such curve, though single readings can be large or run the other way. A potency beside an inconclusive call is a rough fit, not a confirmed value.

Assay: Primary qHTS for Inhibitors of ATXN expression; further: nearly all actives have a fitted effect of over 55% in size
Conditions: HEK-293 ATXN2-luciferase reporter, luminescence, 24 h; activity change, negative = inhibition: at 57 µM (top of the series)
Method in brief: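 ATXN2-luciferase reporter cells (luciferase flanked by upstream and downstream ATXN2 gene portions) were treated 24 h at 37 °C with compounds at up to 57 uM. SteadyGlo luminescence gave expression; GF-AFC fluorescence gave viability.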
On the % scale 0 is the no-effect control and ±100 the full control effect; potency means the concentration at half of the fitted maximal effect; tags describe the fitted curve by direction and shape.

SMILES	Potency	activity change, negative = inhibition
COc1cccc(-c2nc(-c3ccccn3)no2)c1	inconclusive: 8.91 µM [inhibitor, partial curve, poor fit]	
O=c1c2ccccc2sc2nc(CCl)nn12	inconclusive: 15.8 µM [inhibitor, partial curve, poor fit]	
O=C(CCS(=O)(=O)c1ccc(Br)s1)Nc1cc(C(F)(F)F)cc(C(F)(F)F)c1	inconclusive: 28.2 µM [inhibitor, single point]	
CC1CC(C)(C)N(C(=O)CSc2ccc(-c3ccc(F)cc3)nn2)c2ccccc21 (stereo unspecified)	inconclusive: 28.2 µM [inhibitor, single point]	
CCOC(=O)c1ccc(-n2ccnc2)c(NC(=O)c2ccc(C(C)(C)C)cc2)c1	inactive	
COC(=O)[C@]1(C)N[C@H](c2ccc(-c3ccc(Cl)c(Cl)c3)c(OC)c2)[C@@H]2C(=O)N(C)C(=O)[C@@H]21	inconclusive: 31.6 µM [inhibitor, single point]	
CN(C)S(=O)(=O)c1cccc(NC(=O)CSc2cccc3cccnc23)c1	inconclusive: 39.8 µM [inhibitor, single point]	
O=C(Nc1nc2ccc(F)cc2s1)c1ccccn1	inconclusive: 7.94 µM [inhibitor, partial curve, poor fit]	
O=C(CN1CCOCC1)Nc1nc(-c2ccc3c(c2)CCN3S(=O)(=O)c2ccccc2)cs1	inconclusive: 39.8 µM [inhibitor, single point]	
COCCOC(=O)c1c(C)oc2ccc(OCC=C(C)C)cc12	inactive	
CCC1(c2ccccc2)NC(=O)N(CC(=O)Nc2cc(Cl)ccc2N2CCN(C)CC2)C1=O (stereo unspecified)	inconclusive: 39.8 µM [inhibitor, single point]	
CCOC(=O)c1ccc(NC(=O)C2CCCN(S(=O)(=O)c3ccc(F)cc3)C2)cc1 (stereo unspecified)	active: 31.6 µM	
O=C(c1ccc(CSc2nc3ccncc3[nH]2)cc1)N1CCCCCC1	inconclusive: 20 µM [inhibitor, single point]	
CCCc1cc(=O)oc2cc(OCC(=O)NCCc3c[nH]c4ccccc34)ccc12	inconclusive: 31.6 µM [inhibitor, single point]	
Cc1sc2ncnc(NCCc3ccc(S(N)(=O)=O)cc3)c2c1C	inconclusive: 6.31 µM [inhibitor, partial curve]	
COc1ccc(-c2cn3cc(C)ccc3n2)cc1F		inconclusive: -49.2% [inhibitor]
CCCc1cc(N2CCN(c3ccccc3F)CC2)n2cnnc2n1	inconclusive: 7.94 µM [inhibitor, partial curve, poor fit]	
CN(C)/C=C/C(=O)/C=C/c1cn(-c2ncc(C(F)(F)F)cc2Cl)c2ccccc12	inconclusive: 25.1 µM [inhibitor, single point]	
CC(=O)N(CC(=O)Nc1nn(-c2ccccc2)nc1C(N)=O)Cc1ccccc1	inconclusive: 39.8 µM [inhibitor, single point]	
COc1cc(OC)c(NC(=O)c2ccc(-n3cnc4cccnc43)cc2)cc1Cl	inconclusive: 1.41 µM [inhibitor, partial curve, poor fit]	
COc1ccc([C@H]2C[C@H](O)[C@@H](n3cc(COC(=O)c4ccccc4)nn3)CN2Cc2cccs2)cc1	inactive	
COc1ccc(-c2nc3cnccn3c2NC2CCCCC2)cc1-c1cccc(Cl)c1	inconclusive: 39.8 µM [inhibitor, single point] and inconclusive: 28.2 µM [inhibitor, single point]	

SMILES	Potency	activity change, negative = inhibition
CCN(CC)C(=O)c1ccc2c3c(cccc13)C(=O)N(CCc1ccc(OC)c(OC)c1)C2=O	inconclusive: 28.2 µM [inhibitor, single point]	
O=C(NCCCN1CCN(c2ccc(F)cc2)CC1)Nc1ccccc1Cl	inactive	
Cc1noc(C)c1COc1ccc(C(=O)OCC(N)=O)cc1	inconclusive: 1.89 µM [inhibitor, partial curve, poor fit]	
CCCCC(O)(c1ccc(CC)cc1)C(CN1CCOCC1)c1ccccc1 (stereo unspecified)	inactive	
Cc1ccc2nc(-c3ccc4c(c3)OCCO4)cn2c1	inconclusive: 1.26 µM [inhibitor, full curve, poor fit]	
CCN(CC)CCCNC(=O)Cn1ncn2cccc2c1=O	inconclusive: 39.8 µM [inhibitor, partial curve, poor fit]	
O=C(/C=C/c1cccc([N+](=O)[O-])c1)c1ccco1	inactive	
O=C(CC1(O)C(=O)Nc2ccccc21)c1ccccc1O (stereo unspecified)	inactive	
O=C(OCc1cc(=O)n2cc(Br)ccc2n1)C1COc2ccccc2O1 (stereo unspecified)	inactive	
O=c1c(NCCc2ccccc2)c(-c2ccccc2)c1=O	inconclusive: 3.16 µM [inhibitor, single point]	
COc1ccc(OCCCn2c(C3CC(=O)N(c4ccc(F)cc4)C3)nc3ccccc32)cc1 (stereo unspecified)	inconclusive: 39.8 µM [inhibitor, single point]	
Cc1ccc(C(C)C)c(OCC(=O)Nc2sc3c(c2C#N)CC(C)(C)NC3(C)C)c1	inconclusive: 20 µM [inhibitor, partial curve, poor fit]	
COc1ccc(C(=O)Nn2c(SCC(=O)NCc3ccccc3)nc3ccccc3c2=O)cc1	inconclusive: 10 µM [inhibitor, single point]	
COc1ccc(/C=C2\SC(=S)N(NS(=O)(=O)c3ccc(C)cc3)C2=O)c(OC)c1	inactive	
Cc1cc(C)c[n+](CC(=O)c2ccc(-c3ccccc3)cc2)c1	inconclusive: 1 µM [inhibitor, full curve, poor fit]	
CCN(CC)CCC(=O)Nc1cccc2c1C(=O)c1ccccc1C2=O	inconclusive: 22.4 µM [inhibitor, partial curve, poor fit]	
Cc1cc(C)cc(CC(=O)N2CCC2(C)C(=O)NS(=O)(=O)c2ccc(Br)cc2)c1 (stereo unspecified)	inactive	
CCN(CC)c1ccc(CN(C(=O)c2cc(=O)c3ccccc3o2)C2CCS(=O)(=O)C2)cc1 (stereo unspecified)	inactive	
C=CC(=O)N1CCc2ccc(-n3c(=O)ccc4cnc5ccc(-c6cnn(C)c6)cc5c43)cc21	active: 15.3 µM	
COc1ccc(OCCNC(=O)C2(C)CCN2Cc2ccc(SC)cc2)cc1 (stereo unspecified)	inconclusive: 10 µM [inhibitor, partial curve, poor fit]	
CCCc1cc(=O)[nH]c(Nc2cc(Cl)cc(Cl)c2)n1	inconclusive: 3.55 µM [inhibitor, full curve]	
O[C@@H](COc1cccc2ncccc12)CN1CCN(C2c3ccccc3[C@@H]3[C@H](c4ccccc42)C3(F)F)CC1 (stereo partly specified)	inconclusive: 48.5 µM [inhibitor, partial curve, poor fit]	

SMILES	Potency	activity change, negative = inhibition
Cn1c(=O)c2c(nc(NCc3ccco3)n2CCc2ccccc2)n(C)c1=O	inactive	
CCOC(=O)CSC1=NC(=O)/C(=C/c2ccc(OC)cc2)S1	active: 7.08 µM	
CCOc1ccc2nc(NC3=NC(c4ccc(OC)cc4)CC(=O)N3)nc(C)c2c1 (stereo unspecified)	active: 8.91 µM	
CN(C)CCNc1ncnc2sc(-c3ccccc3)cc12	inconclusive: 33.6 µM [inhibitor, single point]	
S=C(NCCCc1ccccc1)Nc1ccc(Cl)cc1	inactive	
O=C(/C=C/c1cccc([N+](=O)[O-])c1)c1ccc([N+](=O)[O-])o1	inconclusive: 3.55 µM [inhibitor, partial curve, poor fit]	
Cc1ccc(S(=O)(=O)/N=C2/C=C(Sc3ncn[nH]3)C(=O)c3ccccc32)cc1	inconclusive: 17.8 µM [inhibitor, partial curve, poor fit]	
COc1cc2c(cc1OC)C(SC)=NC1(CCCC1)C2	inconclusive: 35.5 µM [inhibitor, single point]	
COc1ccc(NC(=O)CSc2nc3ccccc3n2CC(=O)N(C)C2CCCCC2)cc1	inactive	
COc1ccccc1-c1cc(C(F)(F)F)nc(S(=O)(=O)CCCC(=O)NCc2ccc(F)cc2)n1	inconclusive: 37.7 µM [inhibitor, single point]	
COc1ccccc1-c1nnc(Sc2nc([N+](=O)[O-])nn2C)o1	active: 10 µM	
COc1ccc(S(=O)(=O)N2CCc3ccccc32)cc1C(=O)Nc1ccc(C(N)=O)cc1	inconclusive: 35.5 µM [inhibitor, single point]	
Cc1nn(Cc2ccccc2)c2sc(C(=O)N3CCN(Cc4ccc5c(c4)OCO5)CC3)cc12	inconclusive: 28.2 µM [inhibitor, single point]	
Cc1ccc(CNC(=O)C(C)C2Sc3ccccc3NC2=O)cc1 (stereo unspecified)	inactive	
COc1cc(/C=C2\CCCc3c2nc2ccccc2c3C(=O)O)cc([N+](=O)[O-])c1O	inactive	
CCCCCCCC(=O)NNC(=O)c1c(O)c2ccccc2n(CC)c1=O	inconclusive: 20 µM [inhibitor, partial curve, poor fit]	
O=C(c1cccc(Cl)c1)c1nn(-c2ccccc2)c(=O)cc1C(F)(F)F	active: 25.1 µM	
COc1ccc(SC[C@H](C)CN2CC[C@H](C(C)(C)C)CCC2=O)cc1	inconclusive: 39.8 µM [inhibitor, single point]	
NC(Cc1ccc(C(F)(F)F)cc1)c1csc(Nc2nccc(C(F)(F)F)n2)n1 (stereo unspecified)	inconclusive: 25.1 µM [inhibitor, single point]	
COC(=O)C1=C(C)NC(=S)NC1c1ccc(OCC(=O)N2CCCCC2)c(OC)c1 (stereo unspecified)	inactive	
CCCC(=O)N(Cc1cc(=O)[nH]c2ccccc12)c1cccc(C)c1	inactive	
S=C(Nc1ccc(Br)cc1Cl)N1CCN(c2ccccn2)CC1	inactive	
